Results taken from PubChem BioAssay AID504832 (National Center for Advancing Translational Sciences (NCATS), 2011).
About 18,000 (5.8%) of roughly 310,000 compounds were called active. The inconclusive results got no clear call from the source; some entries with a clear call stand among them for comparison. Calls follow the shape of the dose curve; as a rule, active = well fitted inhibition curve with a large enough effect; inconclusive = small, poorly fitted or top-dose-only effect, or another doubt; inactive = no such curve, though single readings can be large or run the other way. Potencies of inconclusive entries are left out as doubtful fits.

Test: Primary qHTS for delayed death inhibitors of the malarial parasite plastid, 48 hour incubation
Settings: P. falciparum luciferase growth in erythrocytes; series mostly up to 28.7 µM; activity change, negative = inhibition: at the top concentration
Outline: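 Cell-based growth assay: transgenic P. falciparum expressing firefly luciferase, cultured in red cells within RPMI 1640 containing 0.5% w/v Albumax, 24 mM bicarbonate and gentamycin. A drop in luciferase activity indicates inhibition.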
% is scaled to controls: 0 for no effect and ±100 for the full control effect; potency is read from the fitted curve at half-maximal effect; tags tell the direction and shape of the fitted curve.

SMILES | Potency | activity change, negative = inhibition
COc1ccc(C(=O)CSc2nnc(CNc3nc(-c4ccccc4)cs3)n2C)cc1 | inconclusive [inhibitor, single point] | 
O=C(CSc1ccccn1)N1CCN(c2cccc(Cl)c2)CC1 |  | inactive: -0.0403%
CC(C)(C)c1cc2cccnc2n1Cc1cccc(Cl)c1 | inconclusive [inhibitor, single point] | 
Cc1cc(C)cc(N(CCC#N)C(=O)COC(=O)c2ccc(OCc3c(C)noc3C)cc2)c1 | inconclusive [inhibitor, partial curve] | 
O=C1c2nc3cc(-c4ccco4)[nH]n3c(=O)c2CN1C1CCCCC1 | inconclusive [inhibitor, partial curve, poor fit] | 
Cc1cc2n(c1)CCn1c(C)ccc1-2 |  | inactive: 15.8%
Cc1ccc(N=Nc2c(N)[nH]n3c(=O)cc(C)nc23)cc1 | inconclusive [inhibitor, single point] | 
O=C(c1cc2c(s1)CCCC2)N1CCN(Cc2ccc3c(c2)OCO3)CC1 |  | inactive: -10.2%
CCc1nnc(NC(=O)[C@@H](NC(=O)c2cccc(S(=O)(=O)N3CCOCC3)c2)C(C)C)s1 | inconclusive [inhibitor, partial curve] | 
O=C1CN(C(=S)Nc2ccccc2Cl)CCN1 |  | inactive: -3.29%
O=C1CSC(c2cccc(Cl)c2Cl)N1c1ccccn1 (stereo not given) | inconclusive [inhibitor, single point] | 
COc1ccc(N2CCN(C(=O)c3ccc(CNS(=O)(=O)c4ccc(C)cc4)cc3)CC2)cc1 | inconclusive [inhibitor, single point] | 
O=C(CCc1nc2ccccc2s1)Nc1cccnc1 |  | inactive: 6.14%
O=C1/C(=C/c2ccncc2)CCC/C1=C\c1ccncc1 | inconclusive [inhibitor, partial curve] | 
COc1cc(CN2CC(=O)N(c3ccc(C)c(C)c3)C2=S)cc(OC)c1OC | active: 1.04 µM | 
Nn1c(SCC(=O)Nc2ccc(S(N)(=O)=O)cc2)nnc1-c1ccco1 |  | inactive: -19.5%
CCOC(=O)C1=C(C)NC2=C(C(=O)CCC2)C1c1ccc(N(C)C)cc1 (stereo not given) | inconclusive [inhibitor, partial curve, poor fit] | 
COCCCNCCCCOc1ccc(Br)cc1Cl | inconclusive [inhibitor, single point] | 
COC(=O)C1=C(c2ccc3ccccc3c2)C[C@@H]2CC[C@H]1N2C(=O)NCCCOC(C)C | inconclusive [inhibitor, single point] | 
COc1ccc(CN(C)C(=O)c2ccc(Cl)c(S(=O)(=O)NCc3cccnc3)c2)cc1F | inconclusive [inhibitor, single point] | 
Cc1cc(C)c2cc(C(=O)Nc3ccc(C)c(F)c3)[nH]c2c1 | active: 11.7 µM | 
Cc1ccc2nc3c(c(N)c2c1)CCN3c1ccccc1 | inconclusive [inhibitor, single point] | 
CCCN1C(=O)/C(=C\c2ccncc2)SC1=Nc1ccccc1 | active: 11.7 µM | 

SMILES | Potency | activity change, negative = inhibition
C=CCn1c(NCCc2ccccc2)nc2c1c(=O)n(C)c(=O)n2C |  | inactive: -12.5%
CCOc1cc(C(=O)N(C)CC(=O)Nc2cccc3ccccc23)ccc1OC | inconclusive [inhibitor, full curve, poor fit] | 
CCOc1ccc(CC(=O)NNC(=S)NCCc2ccccc2)cc1 | inconclusive [inhibitor, full curve] | 
COc1ccc(OC)c(-n2c(-c3ccn[nH]3)n[nH]c2=S)c1 | inconclusive [inhibitor, partial curve] | 
CCOC(=O)N1CCN(C(=O)CN2C(=O)NC(c3ccccc3)(c3ccccc3)C2=O)CC1 | inconclusive [inhibitor, single point] | 
CCOc1ccc2oc(C(=O)N(CC)CC(=O)Nc3c(F)cccc3F)c(C)c2c1 | inconclusive [inhibitor, partial curve, poor fit] | 
O=C(O)[C@@H]1CC(O)CN1C(=O)CCc1c[nH]c2ccccc12 (stereo not given in full) |  | inactive: 0%
COc1cc(C(=O)N2CCN(C(=O)COc3ccc4ccccc4c3)CC2)cc(OC)c1OC | inconclusive [inhibitor, partial curve] | 
CN(C)/C=N/c1c(C#N)cnn1-c1ncnc2sc(-c3ccccc3)cc12 | inconclusive [inhibitor, single point] | 
COc1cc(-c2nc(-c3ccccc3)c(-c3cccs3)[nH]2)cc(OC)c1OC | inconclusive [inhibitor, single point] | 
CC(/C=C/c1ccccc1)=N\NC(=O)c1ccc(Br)cc1 | inconclusive [inhibitor, single point] | 
Cc1ccc(S(=O)(=O)N2CCCCC2)cc1NC(=O)CCCOc1ccccc1 | inconclusive [inhibitor, single point] | 
Cc1cc(OC(=O)c2ccc(S(=O)(=O)N3CCCCC3)cc2)c([N+](=O)[O-])c(=O)[nH]1 |  | inactive: -7.05%
CCS(=O)(=O)Nc1cccc(C2=NN(S(C)(=O)=O)C(c3ccccc3)C2)c1 (stereo not given) |  | inactive: 10%
CCn1c(SCC(=O)N/N=C/C=C/c2ccco2)nc2ccccc21 |  | inactive: 28.8%
CCC(CC)C(=O)c1c[nH]c(C(=O)NCC2CCCO2)c1 (stereo not given) |  | inactive: 3.43%
COC(=O)c1ccc(/C=C2\SC(=S)N(CCCC(=O)NCCCN3CCOCC3)C2=O)cc1 | inconclusive [inhibitor, partial curve, poor fit] | 
COc1ccc(CCN2C(=O)CC(N3CCOCC3)C2=O)cc1 (stereo not given) | inconclusive [inhibitor, partial curve, poor fit] | 
COc1ccc(OCc2nnc(SCC(=O)N3CCCc4ccccc43)n2-c2ccc(C)cc2)cc1 | active: 11.7 µM | 
COc1ccc(NC(=O)CCC2CCCC2)cc1OC |  | inactive: -17.5%
Cc1ccc(NC(=O)/C(C#N)=C/c2ccsc2)c(C)c1 | inconclusive [inhibitor, single point] | 
CN(CC(=O)Nc1ccc(Cl)c(C(F)(F)F)c1)C(=O)c1cc(-c2ccncc2)nc2ccccc12 | active: 13.1 µM | 
